Consider 56 compounds from paper PMC4336329 (PLoS ONE, 2015).

Molecules are shown by their SMILES. About 14,000 (4.5%) of roughly 310,000 compounds showed an effect of 50% or more. The effect is printed as a negative number. This is one part of the list.
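Further: peak tail current of the secondary pulse compared with the same well before compound.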

The target of this assay is human ether-à-go-go-related gene (hERG) potassium channel (human, UniProt Q12809). The assay can be described thus: primary screen, population patch clamp on CHO cells stably expressing hERG.
human ether-à-go-go-related gene (hERG) potassium channel, sequence (Q12809 whole entry, looked up): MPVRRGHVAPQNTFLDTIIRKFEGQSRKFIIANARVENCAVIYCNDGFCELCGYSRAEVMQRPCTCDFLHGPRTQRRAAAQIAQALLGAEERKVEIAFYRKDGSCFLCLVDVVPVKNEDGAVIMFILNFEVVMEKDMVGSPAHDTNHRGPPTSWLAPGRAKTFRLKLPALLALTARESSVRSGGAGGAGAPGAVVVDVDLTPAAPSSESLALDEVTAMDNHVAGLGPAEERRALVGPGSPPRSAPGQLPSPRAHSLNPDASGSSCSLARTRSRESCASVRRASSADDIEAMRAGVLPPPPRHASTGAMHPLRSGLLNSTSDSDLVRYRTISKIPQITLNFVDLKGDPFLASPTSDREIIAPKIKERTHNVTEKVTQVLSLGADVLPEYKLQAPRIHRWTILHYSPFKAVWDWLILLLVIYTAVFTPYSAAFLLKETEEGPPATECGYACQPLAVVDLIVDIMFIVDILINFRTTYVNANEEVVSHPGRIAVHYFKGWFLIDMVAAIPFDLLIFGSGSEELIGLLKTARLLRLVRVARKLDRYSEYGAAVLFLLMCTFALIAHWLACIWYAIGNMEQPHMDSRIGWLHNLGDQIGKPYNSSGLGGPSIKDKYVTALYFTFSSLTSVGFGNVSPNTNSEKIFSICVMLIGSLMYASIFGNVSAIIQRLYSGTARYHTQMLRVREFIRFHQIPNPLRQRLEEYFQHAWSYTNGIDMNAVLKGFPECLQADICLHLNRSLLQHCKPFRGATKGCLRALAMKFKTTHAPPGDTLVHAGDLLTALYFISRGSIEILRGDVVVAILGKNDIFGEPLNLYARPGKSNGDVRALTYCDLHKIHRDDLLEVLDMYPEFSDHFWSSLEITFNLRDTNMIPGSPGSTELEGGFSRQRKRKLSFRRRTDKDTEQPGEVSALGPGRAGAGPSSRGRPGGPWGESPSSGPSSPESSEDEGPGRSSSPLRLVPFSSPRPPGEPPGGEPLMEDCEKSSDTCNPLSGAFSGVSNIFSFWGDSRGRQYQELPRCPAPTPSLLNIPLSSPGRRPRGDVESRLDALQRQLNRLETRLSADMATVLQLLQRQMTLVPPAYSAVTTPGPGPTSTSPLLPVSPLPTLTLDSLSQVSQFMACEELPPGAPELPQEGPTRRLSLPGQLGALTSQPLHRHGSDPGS
As to `Cc1ccc(S(=O)(=O)c2ccc(Oc3cccc(C)c3)cc2)cc1`, the “hERG current change (%, negative = inhibition) at 10uM” value is on record as -3.3%.

Turning to `Cc1cc(C)n(CCCNC(=O)c2cc(COc3ccc(C)c(C)c3)on2)n1`, the “hERG current change (%, negative = inhibition) at 10uM” value was -42.8%.

For `CCOC(=O)C1(CC2CCCCO2)CCN(C(=O)NCc2ccccc2)CC1` (centres unmarked), the “hERG current change (%, negative = inhibition) at 10uM” value is -4.48%.

With `COc1ccc(CNC(=O)Cn2nc(C(F)(F)F)c3c2CCC3)cc1`, the “hERG current change (%, negative = inhibition) at 10uM” value is on record as -5.16%.

Regarding `CC(NC(=O)CN(c1cccc(C(F)(F)F)c1)S(C)(=O)=O)c1ccccc1` (centres unmarked), the “hERG current change (%, negative = inhibition) at 10uM” value came out at 13.2%.

For the compound `O=C(CSc1nc2ccccc2s1)N1CCOCC1`, the “hERG current change (%, negative = inhibition) at 10uM” value is reported as 19.4%.

Take `O=C(CCN1C(=O)/C(=C/c2cccs2)SC1=S)Nc1cccc(O)c1`: the “hERG current change (%, negative = inhibition) at 10uM” value is 4.92%.

`Cc1c(NC(=O)C(C)OC(=O)c2c3c(nc4ccccc24)CCC(C)C3)c(=O)n(-c2ccccc2)n1C` (centres unmarked): the “hERG current change (%, negative = inhibition) at 10uM” value was -2.21%.

In the case of `COc1cccc(CC2(CO)CCN(Cc3cnc(-c4cccc(C)c4)nc3)CC2)c1`, the “hERG current change (%, negative = inhibition) at 10uM” value is listed as -19.9%.

For `O=C(CSCc1ccc([N+](=O)[O-])cc1)N/N=C/c1cccnc1`, the “hERG current change (%, negative = inhibition) at 10uM” value is recorded as -60.2%.

For `CC(=O)OC1OCCOC1NC(=S)NCc1ccco1` (centres unmarked), the “hERG current change (%, negative = inhibition) at 10uM” value was determined as 3.3%.

As to `O=C(CCc1ccccc1)NCCc1cccs1`, the “hERG current change (%, negative = inhibition) at 10uM” value is listed as -15.5%.

`C=CCN1C(=O)/C(=C\c2ccc(Cl)cc2)N=C1SCC(=O)NCCC`: the “hERG current change (%, negative = inhibition) at 10uM” value was determined as 14.8%.

`CCn1c(COc2cccc(OC)c2)nnc1SCC(=O)Nc1cc(OC)ccc1OC`: the “hERG current change (%, negative = inhibition) at 10uM” value is listed as -16.9%.

On to `COCCN(CCOC)Cc1c(C)[nH]c2ccccc2c1=O`, for which the “hERG current change (%, negative = inhibition) at 10uM” value is 2.03%.

As to `Cc1csc(NC(=O)c2cc3c(C)nn(Cc4ccccc4Cl)c3s2)n1`, the “hERG current change (%, negative = inhibition) at 10uM” value is listed as 8.85%.

On to `COCCN(C(=O)CSc1nnc(-c2ccccc2C)n1C)c1c(N)n(Cc2ccccc2)c(=O)[nH]c1=O`, for which the “hERG current change (%, negative = inhibition) at 10uM” value is on record as 38.4%.

For the compound `Cc1c(-c2ccc(F)cc2)[n+](=O)c(-c2ccc(F)cc2)c(C)n1[O-]`, the “hERG current change (%, negative = inhibition) at 10uM” value came out at 13.5%.

For the compound `Cc1ccc2c(c1)cc1c(=O)n(CC(=O)NCCN3CCCC3)nc(C)n12`, the “hERG current change (%, negative = inhibition) at 10uM” value is recorded as -3.34%.

In the case of `Br.COc1ccc(C2=CSC3=NCCN23)cc1OC`, the “hERG current change (%, negative = inhibition) at 10uM” value was -6.58%.

Turning to `CN(C)c1ccnc(-n2cccc2/C=N/O)c1C#N`, the “hERG current change (%, negative = inhibition) at 10uM” value was 14.3%.

With `COC(=O)[C@@H]1C[C@@]1(C)[C@@H](NP(=O)(c1ccccc1)c1ccccc1)c1ccccc1`, the “hERG current change (%, negative = inhibition) at 10uM” value was 4.33%.

For `Cc1cc(-c2n[nH]c(=S)o2)c(C)n1-c1ccccc1`, the “hERG current change (%, negative = inhibition) at 10uM” value is 4.79%.

Turning to `O=C(CSc1nc2ncccc2[nH]1)c1cccc([N+](=O)[O-])c1`, the “hERG current change (%, negative = inhibition) at 10uM” value is reported as -6.11%.

For `OC(C[n+]1ccccc1)c1ccccc1.[Br-]` (centres unmarked), the “hERG current change (%, negative = inhibition) at 10uM” value was 18.7%.

As for `Brc1ccc(-c2cn3nc4c(nc3n2)CCCC4)cc1`, the “hERG current change (%, negative = inhibition) at 10uM” value is recorded as -31.4%.

In the case of `COC(=O)c1ccc(CNC(=O)C2CCC(=O)N(CCCc3ccccc3)C2)cc1` (centres unmarked), the “hERG current change (%, negative = inhibition) at 10uM” value was -29.4%.

`COc1ccc(S(=O)(=O)N2CCCCCC2)cc1NC(=O)c1ccccc1F`: the “hERG current change (%, negative = inhibition) at 10uM” value was 3.54%.

`Cc1cc(N)ccc1S(C)(=O)=O`: the “hERG current change (%, negative = inhibition) at 10uM” value turned out to be 9.43%.

With `CC(=O)Nc1ccc(NC(=O)COC(=O)c2cnccn2)cc1`, the “hERG current change (%, negative = inhibition) at 10uM” value was 18.3%.

Turning to `COc1ccc(CN2CCCC(C(=O)c3ccc(Cl)cc3)C2)c(O)c1` (centres unmarked), the “hERG current change (%, negative = inhibition) at 10uM” value is recorded as -67.7%.

Turning to `CCOC(=O)C(=O)NC12CC3CC(CC(C3)C1)C2`, the “hERG current change (%, negative = inhibition) at 10uM” value worked out at 29.5%.

As to `CCOP1(=O)C=C(C(C)(C)C)OC1c1ccc(F)cc1` (centres unmarked), the “hERG current change (%, negative = inhibition) at 10uM” value is 0.676%.

Regarding `CC1CCN(C(=O)C(C)Sc2nc(-c3ccccc3)cc(C(F)(F)F)n2)CC1` (centres unmarked), the “hERG current change (%, negative = inhibition) at 10uM” value is reported as -3.04%.

On to `CN1CCC(NC(=O)Nc2cccc(C(F)(F)F)c2)CC1`, for which the “hERG current change (%, negative = inhibition) at 10uM” value is recorded as -0.705%.

As for `Cc1nc2ccccc2n1CCOc1ccccc1`, the “hERG current change (%, negative = inhibition) at 10uM” value was 6.17%.

With `COc1ccccc1NC(=O)Cc1csc(NC(=S)Nc2ccccc2)n1`, the “hERG current change (%, negative = inhibition) at 10uM” value came out at 10.4%.

As to `O=C(NCc1ccc2c(c1)OCO2)c1ccc(-n2cnnn2)cc1`, the “hERG current change (%, negative = inhibition) at 10uM” value is given as -19.9%.

Turning to `CCCc1cc(C(=O)Nc2c(C)n(C)n(-c3ccccc3)c2=O)no1`, the “hERG current change (%, negative = inhibition) at 10uM” value was 6.88%.

In the case of `Cc1cc2cc(CN(CC3CCCO3)C(=S)Nc3ccccc3)c(=O)[nH]c2cc1C` (centres unmarked), the “hERG current change (%, negative = inhibition) at 10uM” value is listed as -14.8%.

Consider `COc1ccc(CC(=O)OC(C)C(=O)c2ccc(C)cc2)cc1` (centres unmarked), for which the “hERG current change (%, negative = inhibition) at 10uM” value worked out at 20.4%.

`O=C(Oc1ccc(Br)cc1C(=S)N1CCOCC1)c1ccc(F)cc1`: the “hERG current change (%, negative = inhibition) at 10uM” value is given as 9.32%.

Regarding `O=C(CCCC1=NS(=O)(=O)c2ccccc2N1)N1CCN(c2ccccc2)CC1`, the “hERG current change (%, negative = inhibition) at 10uM” value is recorded as -1.79%.

For `COc1cc(C(=O)NCc2nnc(SCC(=O)Nc3cc(C)cc(C)c3)o2)cc(OC)c1OC`, the “hERG current change (%, negative = inhibition) at 10uM” value is listed as 4.31%.

As for `CCCCCCNC(=O)N[C@H](C(=O)NCCC[C@H]1CN2C(=NC[C@H]2C)N1CCC(c1ccccc1)c1ccccc1)C(C)O` (some centres unmarked), the “hERG current change (%, negative = inhibition) at 10uM” value is on record as 3.37%.

With `N#CC1=C(N)C2=CCCC[C@H]2[C@H](c2ccccc2)C1(C#N)C#N`, the “hERG current change (%, negative = inhibition) at 10uM” value came to 5.83%.

Consider `CCOC(=O)c1cnc(-n2nc(C)cc2C)nc1NCCO`, for which the “hERG current change (%, negative = inhibition) at 10uM” value was determined as 10.5%.

With `CCOC(=O)CN1CC23C=CC(O2)C(C(=O)Nc2ccc4c(c2)OCO4)C3C1=O` (centres unmarked), the “hERG current change (%, negative = inhibition) at 10uM” value is 4.95%.

As to `CCOc1ccc(NCc2cccn2-c2nnc(N3CCC(C(=O)NCCCN4C(C)CCCC4C)CC3)s2)cc1` (centres unmarked), the “hERG current change (%, negative = inhibition) at 10uM” value is given as -69.3%.

In the case of `O=C(Nc1c(C(=O)N2CCCCC2)cnn1-c1ccccc1)c1ccccc1`, the “hERG current change (%, negative = inhibition) at 10uM” value was 4.36%.

As to `CC1CCCCN1CCCNC(=O)Cn1ncc2c([nH]c3ccccc32)c1=O` (centres unmarked), the “hERG current change (%, negative = inhibition) at 10uM” value was found to be 20.6%.

Take `CCOc1cc(S(=O)(=O)NCCCN2CCOCC2)ccc1F`: the “hERG current change (%, negative = inhibition) at 10uM” value is listed as 3.16%.

As to `COC(=O)c1ccc(/C=N/NC(=O)CC(=O)NCc2cccnc2)cc1`, the “hERG current change (%, negative = inhibition) at 10uM” value stood at 1.16%.

Take `Cc1ccc(CN(C)C(=O)C2CCCN2C(=O)c2cccs2)o1` (centres unmarked): the “hERG current change (%, negative = inhibition) at 10uM” value was -4.28%.

On to `O=C(Nc1ccc(F)cc1)C(c1ccccc1)N1CCN(S(=O)(=O)c2ccccc2)CC1` (centres unmarked), for which the “hERG current change (%, negative = inhibition) at 10uM” value was -5.63%.

Turning to `COc1ccc(-c2cc(N)n(S(=O)(=O)c3c(F)c(F)c(F)c(F)c3F)n2)cc1OC`, the “hERG current change (%, negative = inhibition) at 10uM” value was -10.3%.
